Source: PMC12136788
This is one part of the list.

T1: UNK ZnF1-3 (human, UniProt Q9C0B0 31-174)
T1 sequence: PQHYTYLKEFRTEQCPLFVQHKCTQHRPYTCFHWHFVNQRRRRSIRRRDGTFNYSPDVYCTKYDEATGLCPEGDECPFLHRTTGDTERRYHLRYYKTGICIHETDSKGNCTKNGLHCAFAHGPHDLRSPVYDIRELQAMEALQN

B1: chr11:63961690:63961691:+_ENSG00000168439_ENST00000305218|hu_hu|motif|central (ssRNA)
RNA: GGGAGUUCUACAGUCCGACGAUCCUCGUGUUUUAAGCCCUCCUCAUAGGUUCGCUUGGCUUCUUCAAAGCGGUUUAAGAACUCGGGAGCUGCUGCUUUUCGUGAAUAGCCCUUGCCCCAGUCAGGCUUUAGGUCGACAGUCUUCAACAGAGGAUUGAGCAUCA
B2: chr3:107877451:107877452:-_ENSMUSG00000027889_ENSMUST00000078912|mus_mus|FALSE|FALSE (ssRNA)
RNA: GGGAGUUCUACAGUCCGACGAUCGCAGCCAGUGCCACAGCAGAGAGAUAACGAGCCCCUCCUGUCCCACAGCCACAUAAACAAGAGGGAAACUCAACUUGAACUCUAACCAAAGCCUGGGUUCCCGGUGCUCAAGGGGCCAGCCAACAGAGGAUUGAGCAUCA
B3: chr1:58468927:58468928:-_ENSMUSG00000026034_ENSMUST00000148330|mus_mus|mus_mus_mus_hu_False|58_88 (ssRNA)
RNA: GGGAGUUCUACAGUCCGACGAUCAAUUACUGAAAAAGAUGUUCAUUUAUUUGGUUUUGUACUUAAUGAACCAAAUUAUCUAAAAAAAAUAAACAUGGCAAUAUAAAAAUGUUAAGAAUUUACAAAGCUGUACAAAAUAACUUACAACAGAGGAUUGAGCAUCA
B4: chr13:29045409:29045410:-_ENSMUSG00000076431_ENSMUST00000067230|mus_hu|FALSE|FALSE (ssRNA)
RNA: GGGAGUUCUACAGUCCGACGAUCAUUUUGUUGCAAGGUAGGAAGCCAAAAAGCCUGCAUGCAACAGACUGGCAUGAAUAAAUGUAUGUUUCCCCCUCCCUUCUGCAAGAAGGGAGCUGGUAAUGGCAGGAGUUCCUCCAGUGCCAACAGAGGAUUGAGCAUCA
B5: chr13:107726893:107726894:-_ENSMUSG00000042590_ENSMUST00000080856|mus_mus|motif|central (ssRNA)
RNA: GGGAGUUCUACAGUCCGACGAUCCCUUUCCACUUGUCCACACGAAGCGGCGUUGGUUGCUUCCUCGUCCCCCACGCUCCGGGUCCACACGCUGCCGCCUACUGAUGCCGAAAACGGCUUCUAGGAACGCGCCAUGUUCCGCGUCAACAGAGGAUUGAGCAUCA
B6: chr6:142724167:142724168:+_ENSMUSG00000030282_ENSMUST00000032419|mus_mus|FALSE|FALSE (ssRNA)
RNA: GGGAGUUCUACAGUCCGACGAUCCCAGACUCAUUGCUUUACAAUAAAUAAAAUCCCAGCAUCAUUAACACCACACACACUAGUUUGACAGGGCACAAUACAGAGUGGAUUGUUUAUGAGGUCGGAGCAAGACUAGGUCAAUCCCAACAGAGGAUUGAGCAUCA
B7: chrX:71549400:71549401:+_ENSMUSG00000019087_ENSMUST00000019231|mus_hu|mus_mus_mus_hu_False|1_108 (ssRNA)
RNA: GGGAGUUCUACAGUCCGACGAUCGCAAGGAAGAGGAGGAAGCUCUUCAGUCCAGUGCGCUGCAGGGUGGGAAAGCAACAACACGGACACCGUCCCACCCUCAACCCCCCCACUGGCACAGGGUCACACAAUCUGGGAAGUGAUCAACAGAGGAUUGAGCAUCA
B8: 5019412_5019532_1253_3pUTR_ENSMUSG00000022536_ENSMUST00000115844|mouse|control|control (ssRNA)
RNA: GGGAGUUCUACAGUCCGACGAUCAGCAGCUGCUGCAGUCCUCAUACAAGCCCCUGUCUCCGGCUGCUAAGAUCACCAACAUCCCAUCAUUGGACAGUUGCUGAUUCCCUGAGACUGGUGCUUCCAGAAAGCGUCCCCCUCUGGCAACAGAGGAUUGAGCAUCA
B9: chr13:30086970:30086971:-_ENSG00000139514_ENST00000380752|hu_mus|motif|central (ssRNA)
RNA: GGGAGUUCUACAGUCCGACGAUCAGGCCCUGUGUAGGCUGGGGAAGUGUGCUACCACUAGGCUACACGCCUGUCCAGCCCCACGGACUCUUCCAUUCUCAAGAAUCUUCCAAAGCAGAGGAAAGACAGGGCCAUCAGUCUACCCAACAGAGGAUUGAGCAUCA
B10: chr17:60770872:60770873:+_ENSG00000011028_ENST00000303375|hu_hu|hu_hu_hu_mus_True|78_98 (ssRNA)
RNA: GGGAGUUCUACAGUCCGACGAUCUCUUUAAAAAAAAUUCCUUUUUUACAAACAAUAAUAAUGGCACUCGAGAAUCAAGAACUACAAUAGAGGGUCCGCUUUGAGUUUUUGUUCACAUCGUCCUGCACUGGGACACGGGGACUGCAACAGAGGAUUGAGCAUCA
B11: chr3:88228879:88228880:-_ENSMUSG00000050144_ENSMUST00000057935|mus_mus|motif|central (ssRNA)
RNA: GGGAGUUCUACAGUCCGACGAUCAUAUCCACUGCCUCCUCGACAGGUUGAACCUUAGGUACCUCUGAUCCUUCAAGACACCGGAGCACCGUGGUCGCUUUCCUUCUCAGACCCCAGCGCUUUAGCCGCGUCUGAGACUGGGACCAACAGAGGAUUGAGCAUCA
B12: chr3:44794862:44794863:-_ENSG00000163807_ENST00000296121|hu_mus|FALSE|FALSE (ssRNA)
RNA: GGGAGUUCUACAGUCCGACGAUCGUCCACAAUAUUCAUAUUUACUCAUUUUCAUCUUCACUGUCAAAAGAAAGGAGACUGCUAUUUUUUAUUUGUUUUUGUGAGUUCUUUCUAACUGAACUUUGCUUAUUUACAUCAUCUUCACAACAGAGGAUUGAGCAUCA
B13: chr10:112364898:112364899:-_ENSMUSG00000074748_ENSMUST00000099276|mus_mus|FALSE|FALSE (ssRNA)
RNA: GGGAGUUCUACAGUCCGACGAUCAUCGAAUUCAAACGGGAAUAUUAAUAUUUUUAGUAUUUAAGUCACAUACCUGACUUCUAUUUGUAUCAAAGAGGCCCAAUUGGAGGCUUAGAAAUCAGAGGAGCAGUCCACCGAAGCUGACAACAGAGGAUUGAGCAUCA
B14: 13423187_13423307_457_5pUTR_ENSMUSG00000031012_ENSMUST00000115438|mouse|control|control (ssRNA)
RNA: GGGAGUUCUACAGUCCGACGAUCGCCAUGGUCCGAAGGGGACAGCGGCCGCAGCGUGGAGGGUUCUGAAAACUGGGUUGGGGGCGCCCAAGAGCUCAGUGCCCGGCUCCGGGCUCGUGUCCUCCACUCAGGACCCGCAAGCCCCAACAGAGGAUUGAGCAUCA
B15: chr8:117878989:117878990:-_ENSG00000164754_ENST00000297338|hu_hu|hu_hu_hu_mus_True|18_38 (ssRNA)
RNA: GGGAGUUCUACAGUCCGACGAUCCCAGAGGCCCUCGUUUACUGAGGACAAAAUGUGCGUAGAACAUUUUUCUUAUUUGCUAUGAAAUAAGAAGAAAACCUUGCUCUGGCGGGGAGCUUGGGCGGGCGGGUGGCCCGGGGAGGGCAACAGAGGAUUGAGCAUCA
B16: chr14:58718896:58718897:+_ENSG00000100567_ENST00000216455|hu_hu|FALSE|FALSE (ssRNA)
RNA: GGGAGUUCUACAGUCCGACGAUCCCGAUCAACAUUAAAAAGUCUUUUGUUGGAACCUUCUUCAUAAAGUUUAGAAAGGACUAAUUUUUCUACCCCAAAGACAACACCAUCUUUGCAUCUGAUUCCAAUAGCUGUACUACUAUUCAACAGAGGAUUGAGCAUCA
B17: chr17:7482246:7482247:+_ENSG00000161960_ENST00000293831|hu_hu|FALSE|FALSE (ssRNA)
RNA: GGGAGUUCUACAGUCCGACGAUCAGUUUCCAAGUCAUUUUAUUCAGAAUUUUGUGUUUGUUUCCUGAAUCAAUAAAUACUAUACAAAACAAUGUAAAAAUGGCUACCAUUUUCUCUCCCCUGCUUCCCCCCACCUGGGGACAACAACAGAGGAUUGAGCAUCA
B18: chr22:19452774:19452775:-_ENSG00000070010_ENST00000399523|hu_hu|hu_hu_hu_mus_False|88_88 (ssRNA)
RNA: GGGAGUUCUACAGUCCGACGAUCCUUCUCAUUGUAGUUGAUAGCAAUCACAUCCCCAGUCGUCAGACAGGCGAAGUUUCUCAAUGCAUUUUCUAAUACCGCUUUAGGGUUGGUAAUAUCCAGGAAGUCUGGGCUCUGAGGCUGCAACAGAGGAUUGAGCAUCA
B19: chr8:145151508:145151509:+_ENSG00000179091_ENST00000318911|hu_mus|FALSE|FALSE (ssRNA)
RNA: GGGAGUUCUACAGUCCGACGAUCGCCUUCUCGCAAUGACACCCCAGUGGGGGGCUCACAGUAGCCAGUGAGCAGGGAAAAUACGUAGUCCUCACCACCAUGCCUAGCUCGAACGAUGUAGCUGAGGUCAGGGGGUAAAGCUCCCAACAGAGGAUUGAGCAUCA
B20: chr2:30816663:30816664:-_ENSMUSG00000026849_ENSMUST00000028200|mus_mus|FALSE|FALSE (ssRNA)
RNA: GGGAGUUCUACAGUCCGACGAUCUCUGAUGCACAUUUUCAGGUGCUUGUACUCCAGGGGCAGGAAGGGGACAAAAUAAUCUAUGAGGUUCCGGUCAAUGAGGCUGCUGUGCCAGAAGCCACUGUUCUUGUUAUUGAAGACCGACAACAGAGGAUUGAGCAUCA
B21: chr10:33214929:33214930:-_ENSG00000150093_ENST00000302278|hu_mus|motif|central (ssRNA)
RNA: GGGAGUUCUACAGUCCGACGAUCAACAAGUUCAUUGAAAAACUCUCCUCUGUCAGUAAGACUAAGCACAUUUUUGUAGCGGAAUGGGCUGGUGCAGUUUUGUUCACUUGUACAAGGAUUUCUUAGCUUUGCUGGGGUUGUGCUCAACAGAGGAUUGAGCAUCA
B22: 104489726_104491872_993_CDS_ENSMUSG00000027176_ENSMUST00000028599|mouse|control|control (ssRNA)
RNA: GGGAGUUCUACAGUCCGACGAUCAUACUGGGCAGCUUCAUACCAGAUAUCAGGGUGAUGGCCCAGCACAAGGAGGCACUGUUCAUAGGCAAACAUAACUCUUUUGGUUAUCAGGGUCUGGUCCUCUGUGCGAAGAGGGUUGCUCAACAGAGGAUUGAGCAUCA

The binders below were run against T1, UNK ZnF1-3 (assay: nsRBNS (natural sequence RNA bind-n-seq); RBNS binding buffer (assumed for nsRBNS): 25 mM Tris pH 7.5, 150 mM KCl, 3 mM MgCl2, 0.01% Triton X-100, 500 ug/ml BSA, 20 U/ml SUPERase-In, 4 C; UNK is unkempt and MSI1 is Musashi-1; names of the RNAs are library labels; protein concentration not given here; high values mean tight binding).

Compared with B1, B2 is higher in binding signal: 0.578 enrichment R for the first, 1.35 enrichment R for the second.

First: B3
Second: B4
The binding signal of the first is higher: 2.55 enrichment R for the first, 0.814 enrichment R for the second.

Going from B5 to B6, the binding signal rises from 0.696 enrichment R to 1.73 enrichment R.

Compared with B7, B8 is lower in binding signal: 1.35 enrichment R for the first, 0.402 enrichment R for the second.

Compared with B9, B10 is higher in binding signal: 1.03 enrichment R for the first, 1.53 enrichment R for the second.

First: B11
Second: B12
The binding signal of the first is lower: 0.678 enrichment R for the first, 0.696 enrichment R for the second.

Going from B13 to B14, the binding signal falls from 1.92 enrichment R to 0.959 enrichment R.

Compared with B15, B16 is higher in binding signal: 0.987 enrichment R for the first, 0.99 enrichment R for the second.

Going from B17 to B18, the binding signal falls from 2.16 enrichment R to 0.79 enrichment R.

Going from B19 to B20, the binding signal falls from 1.46 enrichment R to 1.06 enrichment R.

First: B21
Second: B22
The binding signal of the first is lower: 0.842 enrichment R for the first, 0.919 enrichment R for the second.
